# Laboratory results as given in PubChem BioAssay AID2060610 (Molecular Pharmacology Branch, DTP, NCI, 2025).
# Not every entry of the source has a single result; some have several. They are shown here; other results are not. An entry can have further records. Values given together are repeated measurements (runs, samples, wells, individuals or studies). Dates in brackets are months of testing.
# System: 616215-338-R-J1-PDC complex spheroids, viability % test/control
# Assay: Anticancer human tumor 616215-338-R-J1-PDC patient-derived colon adenocarcinoma cell line growth inhibition [CLK]
# Details: compound alone 10 µM; stronger effect = lower value
# Description: A high-throughput screen of multi-cell type tumor spheroids was designed to identify active combinations of […] and targeted small molecules. Complex spheroids include a stromal component modeled by human endothelial cells (HUVEC) and fibroblasts modeled by human mesenchymal stem cells (MSCs). The concentration ranges selected for each drug and investigational agent were based upon clinically achievable concentrations if the clinical Cmax of the agent was known.
# Compounds. The drugs and investigational agents: cirtuvivint (SM08502; NSC835563), CC-671 (NSC850746), vemurafenib (NSC761431), tapotoclax (NSC804041), sotorasib (NSC818433), adagrasib (NSC831453), MRTX-1133 (NSC836407), BAY2416964 (NSC825713), copanlisib (NSC816437), inavolisib (NSC800729), abemaciclib (NSC768073), osimertinib (NSC779217), entinostat (NSC756642), eltanexor (KPT-8602, NSC794443), venetoclax (NSC766270), ceralasertib (NSC777638), bortezomib (NSC756655), olaparib (NSC753686), talazoparib (NSC767125), alisertib (NSC759677), peposertib (NSC802822), gemcitabine (NSC613327), 5-fluorouracil (NSC19893), SN-38 (NSC673596), oxaliplatin (NSC266046), paclitaxel (NSC125973), and doxorubicin (NSC123127), were obtained from the National Cancer Institute (NCI) Developmental Therapeutics Program Chemical Repository. […] If the clinical Cmax for an agent had not been determined, the highest concentration tested was 10 microM. […]
# 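Note: spheroids exposed to agents for 7 days; 100% = DMSO vehicle wells.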
row,Structure (SMILES),"viability, T/C"
1,COC1C=CCC(C)C(C)S(=O)(=O)NC(=O)c2ccc3c(c2)N(CC2CCC21)CC1(CCCc2cc(Cl)ccc21)CO3 (configuration not stated),0.01% [2023-07] and 50.4% [2023-08]
2,CC1(C)CCC(CN2CCN(c3ccc(C(=O)NS(=O)(=O)c4ccc(NCC5CCOCC5)c([N+](=O)[O-])c4)c(Oc4cnc5[nH]ccc5c4)c3)CC2)=C(c2ccc(Cl)cc2)C1,3.31% [2023-07] and 99.6% [2023-08]
